Molecular target: importin-β (human (endogenous in A549, KB-CP20, …, UniProt Q14974))
Experiment: co-IP

Sequence of UniProt Q14974 (Q14974 whole entry): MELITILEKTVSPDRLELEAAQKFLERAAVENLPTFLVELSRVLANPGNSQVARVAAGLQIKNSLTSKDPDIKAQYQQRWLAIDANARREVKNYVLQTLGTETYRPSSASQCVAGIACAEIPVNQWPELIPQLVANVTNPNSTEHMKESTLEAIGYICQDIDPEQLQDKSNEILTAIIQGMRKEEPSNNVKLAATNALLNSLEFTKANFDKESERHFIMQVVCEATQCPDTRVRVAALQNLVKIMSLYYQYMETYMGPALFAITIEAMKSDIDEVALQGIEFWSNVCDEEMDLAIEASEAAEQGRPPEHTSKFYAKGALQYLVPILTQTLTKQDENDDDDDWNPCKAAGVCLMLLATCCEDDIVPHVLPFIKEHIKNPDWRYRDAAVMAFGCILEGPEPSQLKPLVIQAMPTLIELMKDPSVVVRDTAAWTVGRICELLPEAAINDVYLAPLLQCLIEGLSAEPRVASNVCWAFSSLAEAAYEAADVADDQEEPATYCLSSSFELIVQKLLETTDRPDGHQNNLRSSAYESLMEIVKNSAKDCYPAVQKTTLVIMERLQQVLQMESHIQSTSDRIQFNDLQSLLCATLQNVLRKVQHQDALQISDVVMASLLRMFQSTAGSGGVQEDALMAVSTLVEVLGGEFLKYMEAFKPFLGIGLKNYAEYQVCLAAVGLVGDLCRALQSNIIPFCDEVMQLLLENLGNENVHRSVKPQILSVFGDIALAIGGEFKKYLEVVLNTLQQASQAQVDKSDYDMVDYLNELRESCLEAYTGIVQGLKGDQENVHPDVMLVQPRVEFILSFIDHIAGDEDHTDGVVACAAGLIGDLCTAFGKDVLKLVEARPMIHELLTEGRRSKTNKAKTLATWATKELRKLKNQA

B1: p53^420 (endogenous, oxaliplatin-selected KB-OX cell lines) (natural protein)
chain: not shown
In the case of B1, the “p53 in the importin β immunoprecipitate, relative to KB-CP20” value is reported as 5%.
